One assay deals with T1, MLL3_(ePHD6)_(1055–1144) (human, UniProt Q8NEZ4 1055-1144).
T1 construct: MLL3 (KMT2C), human, residues 1055–1144: the zinc finger before PHD6 and the sixth PHD domain; Monomer in solution by gel filtration; the dimer in the crystal is put down to crystal packing; also called extended PHD6 domain of MLL3; source: E. coli BL21 (DE3) Codon plus RIL, purified (Ni-NTA, thrombin, HiTrap Q, Superdex75); not shown: GST, N-terminal, cleaved; His tag, N-terminal, cleaved
T1 sequence (looked up): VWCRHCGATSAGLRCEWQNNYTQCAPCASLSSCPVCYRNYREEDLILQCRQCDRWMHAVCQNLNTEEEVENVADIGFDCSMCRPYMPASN
Briefly: ITC; peptide (1–2 mM) in the syringe injected into protein (50–100 μM) in the cell; 25 °C; 20 mM Tris pH 7.5, 150 mM NaCl; single-site binding model. The settings on record: both partners purified. For orientation: Isothermal titration calorimetry measures the heat released or taken up as one component is titrated into another.

Another assay deals with T2, MLL4_(ePHD6)_(1475–1564) (human, UniProt O14686 1475-1564).
T2 construct: MLL4 (KMT2D, ALR), human, residues 1475–1564: the zinc finger before PHD6 and the sixth PHD domain; also called extended PHD6 domain of MLL4; source: E. coli BL21 (DE3) Codon plus RIL, purified (Ni-NTA, thrombin, HiTrap Q, Superdex75); not shown: GST, N-terminal, cleaved; His tag, N-terminal, cleaved
Described as above. Conditions: both partners purified.

Sequence of MLL4_(ePHD6)_(1475–1564) (O14686 1475-1564): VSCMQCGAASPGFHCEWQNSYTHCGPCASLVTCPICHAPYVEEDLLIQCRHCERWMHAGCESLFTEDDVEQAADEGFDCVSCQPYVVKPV

B1: histone H4 peptide H4_([…])R3A (peptide)
peptide: not shown
notes: histone H4, […] with R3A; also called R3A mutant of the histone H4_([…]) peptide; source: synthetic peptide (Peptide 2.0 Inc.)
For orientation: Kd means the free concentration of one partner at which half of the binding sites on the other are occupied at equilibrium, for simple one-to-one binding. Read a low Kd as higher affinity. For B1, the Kd with MLL3_(ePHD6)_(1055–1144) is 66 µM; with MLL4_(ePHD6)_(1475–1564) it was 28 µM.

Values taken from paper PMC6318328, “Structural insights into trans-histone regulation of H3K4 methylation by unique histone H4 binding of MLL3/4” (Nature Communications, 2019).
